# In all, about 420,000 compounds went through this assay and about 64,000 (15%) were called active. The inconclusive results got no clear call from the source; some entries with a clear call stand among them for comparison. Calls follow the shape of the dose curve; as a rule, active = well fitted inhibition curve with a large enough effect; inconclusive = small, poorly fitted or top-dose-only effect; inactive = flat fitted curve, though single readings scatter. Potencies of inconclusive entries are left out as doubtful fits.
# Assay: qHTS for Inhibitors of human tyrosyl-DNA phosphodiesterase 1 (TDP1): qHTS in cells in absence of CPT; also: nearly all actives have a fitted effect of over 55% in size
# Conditions: DT40 Tdp1-/- hTDP1 cells, no CPT, ATP luminescence, 48 h; activity change, negative = growth inhibition: at 46.2 µM (top of the series) unless noted
# Procedure, shortened: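 Readout: luminescence from CellTiter-Glo after 30 min in the dark at RT. Cells: DT40 Tdp1-/- with stable hTDP1, 400/well. Exposure: compounds alone, ≥48 hr, 37 °C.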
# % is scaled to controls: 0 for no effect and ±100 for the full control effect; potency is read from the fitted curve at half-maximal effect; tags tell the direction and shape of the fitted curve.
SMILES,Potency,"activity change, negative = growth inhibition"
N#Cc1ccccc1N1CCN(C(=O)c2ccc(NC(=O)c3ccc(Br)o3)cc2)CC1,"inconclusive [inhibitor, partial curve]",–
CCCn1c(C)cc(/C=C(\C#N)C(=O)OCC(=O)Nc2cccc(OC)c2)c1C,"inconclusive [inhibitor, single point]",–
Cc1ccccc1-c1noc(CSc2nc3ccccc3[nH]2)n1,active: 6.51 µM,–
CCOc1ccccc1NC(=O)CSc1nc2ccccc2c(=O)n1CC1CCCO1 (stereo not given),"inconclusive [inhibitor, single point]",–
CCCCN(C)C(=O)c1[nH]c(C(F)(F)F)nc1-c1ccccc1,"inconclusive [inhibitor, single point]",–
CC1CCN(C(=O)Cn2c(=O)n(CCc3ccccc3)c(=O)c3ccccc32)CC1,active: 16.4 µM,–
O=C(NCCc1ccccc1)c1cc(Nc2ccccc2)nc2ccccc12,"inconclusive [inhibitor, partial curve]",–
COc1ccc(C(=O)NCCCN2CCCC2=O)cc1,inactive,–
Cc1cc(C)c(C)c(S(=O)(=O)NCc2ccncc2)c1C,active: 13 µM,–
Cc1cc(=O)n2nc(N(C)CC(=O)NCc3ccccc3C)sc2n1,inactive,–
CC(C)NC(=O)C(c1ccc(F)cc1)N(C(=O)CCC(=O)Nc1ccccn1)C1CCCC1 (stereo not given),inactive,–
CCN1CCN(CCNC(=O)CCc2c(C)c3c(C)nn(-c4ccccc4)c3n(C)c2=O)CC1,"inconclusive [inhibitor, single point]",–
O=C(Nc1ccc(C(=O)O)cc1)/C(=C\c1ccc2c(c1)OCO2)NC(=O)c1ccc(Br)o1,"inconclusive [inhibitor, single point]",–
Fc1ccc(CSc2nnc(CN3CCOCC3)n2-c2ccccc2)c(Cl)c1,"inconclusive [inhibitor, single point]",–
CCCn1c(SCC(=O)Nc2cc(C(=O)O)ccc2C)nc2sc3c(c2c1=O)CCC3,"inconclusive [inhibitor, partial curve]",–
CCc1ccccc1Nc1nn2c(=O)c3ccc(C(=O)NCCC4=CCCCC4)cc3nc2s1,active: 14.6 µM,–
CCCSc1nc(C)cc(=O)[nH]1,inactive,–
CCCCCNS(=O)(=O)c1cc2c3c(c1)CCC(=O)N3CCC2,inactive,–
CCOCCc1nnc(NC(=O)C(=O)c2cc(C)n(-c3ccc(C)cc3C)c2C)s1,"inconclusive [inhibitor, single point]",–
C/C(CC(O)(/C=N/O)c1ccccc1)=N\O (stereo not given),inactive,–
CC(=O)c1c(C)nn(CC(O)Cn2c3c(c4cc(C)ccc42)CCCC3=O)c1C (stereo not given),"inconclusive [inhibitor, single point]",–
CCOC(=O)c1[nH]c2ccccc2c1NC(=O)CC,inactive,–
CCC(c1nnnn1-c1ccc2c(c1)OCCO2)N1CCN(C/C=C/c2ccccc2)CC1 (stereo not given),active: 13 µM,–
CCOc1ccc(C(=O)Nc2ccc(S(=O)(=O)Nc3cc(C)on3)cc2)cc1,"inconclusive [inhibitor, single point]",–

SMILES,Potency,"activity change, negative = growth inhibition"
CC(C)NC(=S)NN=C1c2ccccc2-c2ccccc21,active: 7.31 µM,–
CCOc1ccc(Nc2nc(-c3cccc(Cl)c3)c3c(n2)-c2ccccc2OC3)cc1,"inconclusive [inhibitor, single point]",–
COc1ccc2c(c1)c1c(c(=O)n(Cc3ccccc3)c(=O)n1CC(=O)Nc1ccccc1OC)n2C,inactive,–
CN(Cc1cccc(F)c1)C(=O)c1cccc(S(=O)(=O)N2CCN(Cc3ccccc3)CC2)c1,"inconclusive [inhibitor, single point]",–
CCn1c(C)c(C)c2cc(C(=O)NCC(C)c3ccccc3)ccc21 (stereo not given),active: 29.1 µM,–
CC(NC(=O)/C(C#N)=C1\N=C(NC(=O)c2cccs2)c2ccccc21)c1ccccc1 (stereo not given),active: 16.4 µM,–
O=C(c1ccc2c(Cl)c3c(nc2c1)CCCC3)N1CCN(c2ccc(Cl)cc2)CC1,"inconclusive [inhibitor, single point]",–
CCOC(=O)N/N=C/c1c(F)cccc1F,"inconclusive [inhibitor, single point]",–
OC[C@@H]1CN(CCN2CCOCC2)C[C@H](n2cnc3c(N4CCCC4)ncnc32)O1,inactive,–
NC(=S)Nc1ccccc1Br,"inconclusive [inhibitor, partial curve]",–
Cc1cc(=O)[nH]c(NN=Cc2cc(Br)ccc2O)n1,active: 2.91 µM,–
O=c1c2ccccc2ncn1Cc1ccc(Cl)c(Cl)c1,inactive,–
COc1ccc(N2CCN(CCCNC(=O)C3COc4ccccc4C3)CC2)cc1 (stereo not given),active: 16.4 µM,–
Cc1ccc(S(=O)(=O)NC(CC(C)C)C(=O)N2CCCCCCC2)cc1 (stereo not given),"inconclusive [inhibitor, single point]",–
O=C(NCC(c1ccco1)N1CCCCC1)C(c1ccccc1)c1ccccc1 (stereo not given),"inconclusive [inhibitor, single point]",–
CN1CCCCc2c1[nH]c1ccccc1c2=O,"inconclusive [inhibitor, single point]",–
COc1ccc2oc(C(=O)OCC(=O)NCc3ccc(OC)c(OC)c3)c(C)c2c1,"inconclusive [inhibitor, single point]",–
CCc1c(O)cc2n(c1=O)-c1ccc(Cl)cc1C2(C)C,"inconclusive [inhibitor, single point]",–
Fc1nc(F)c(F)c(NCCCNc2c(F)c(F)nc(F)c2F)c1F,"inconclusive [inhibitor, single point]",–
O=C(Nc1nc2c(F)cc(F)cc2s1)c1ccc(S(=O)(=O)N2CCc3ccccc32)cc1,"inconclusive [inhibitor, single point]",–
O=C(NC1=C(NC2CCS(=O)(=O)C2)C(=O)c2ccccc2C1=O)c1ccccc1 (stereo not given),active: 2.31 µM,–
CC(C#N)(NC(=O)CN1CCN(S(=O)(=O)c2ccccc2Cl)CC1)C1CC1 (stereo not given),inactive,–
Cc1nc(-c2ccccc2)nc(-c2ccccc2)n1,inactive,–
Cc1ccc(NC=C(S(=O)(=O)c2ccccc2)S(=O)(=O)c2ccccc2)cc1,–,inconclusive: -34.7% [inhibitor]

SMILES,Potency,"activity change, negative = growth inhibition"
Cc1cc(N2CCCC2)c(C)cc1C=O,"inconclusive [inhibitor, partial curve, poor fit]",–
N=C1/C(=C\c2ccc(-c3ccc(C(=O)O)cc3)o2)C(=O)N=C2SC=C(c3ccccc3)N12,"inconclusive [inhibitor, partial curve, poor fit]",–
Cc1ccc(C(=O)NC(=S)/C=C2\N(C)c3ccccc3C2(C)C)cc1,active: 3.66 µM,–
O=C(CSc1ccccn1)NC1CCCc2c1cnn2-c1ccccc1F (stereo not given),active: 16.4 µM,–
COc1ccccc1NC(=O)/C(C#N)=C/c1cc([N+](=O)[O-])ccc1N1CCCC1,"inconclusive [inhibitor, partial curve]",–
CCN(CC)CCN(CC(=O)N(C1CCCCC1)C1CCCCC1)C(=O)c1ccco1,"inconclusive [inhibitor, single point]",–
CC(C)C[C@H]1CNC(=S)N1C[C@H]1CCCN1C[C@H](Cc1ccc(O)cc1)N1C[C@H](Cc2ccccc2)N(CCc2ccccc2)C1=S,"inconclusive [inhibitor, single point]",–
COc1cccc(CN2CCC2(C)C(=O)Nc2ccc3c(c2)OCO3)c1F (stereo not given),"inconclusive [inhibitor, single point]",–
O=C(Nc1ccc(F)cc1)Nc1csc2c1CCCC2,"inconclusive [inhibitor, single point]",–
CCCN1CNc2c(c(=O)[nH]c(=S)n2CCc2cccc(OC)c2)C1,"inconclusive [inhibitor, single point]",–
C[C@@H]1CN([C@H](C)CO)C(=O)c2cc(NC(=O)Nc3cccc4ccccc34)ccc2O[C@H]1CN(C)Cc1ccc(C(F)(F)F)cc1,active: 8.2 µM,–
O=C(/C=C/c1ccc(Cl)cc1)NC(=S)Nc1ccc(CN2CCOCC2)cc1,active: 23.1 µM,–
Cc1ccc(CNC(=O)CSc2nc3c(sc4ccccc43)c(=O)n2CCCC(=O)NCCO)cc1,"inconclusive [inhibitor, single point]",–
CCN1C(C(=O)c2ccccc2)=C(OC(=O)COc2ccc(C)cc2)c2ccccc2S1(=O)=O,active: 16.4 µM,–
O=C(OCC(O)C1OC(c2ccccc2)OC(COC(=O)c2ccccc2)C1O)c1ccccc1 (stereo not given),"inconclusive [inhibitor, single point]",–
COC(=O)c1ccc(N2C(=O)Cc3cc(OC)c(OC)cc3C2c2ccc(F)cc2)cc1 (stereo not given),"inconclusive [inhibitor, single point]",–
O=c1cc(-c2cc3ccccc3o2)c2cc(O)ccc2o1,"inconclusive [inhibitor, partial curve, poor fit]",–
O=C(CSc1ccc2nnc(-c3ccccn3)n2n1)Nc1cccc(F)c1,inactive,–
COc1cc(/C=C2\C(C)=C(C#N)c3nc(N)c(C#N)c(C)c32)ccc1OCC(=O)O,"inconclusive [inhibitor, single point]",–
Cc1onc(C(=O)NC(C)c2ccccc2)c1[N+](=O)[O-] (stereo not given),inactive,–
Cc1cccc(Nc2ncnc3onc(-c4cccc(Cl)c4)c23)c1C,active: 18.4 µM,–
CC(=O)c1c(N2CCCC2)[nH]c(-c2ccccc2)nc1=S,"inconclusive [inhibitor, single point]",–
